Hit rate of the full screen: of about 52,000 compounds, about 4,300 (8.3%) were called active. Rule as the data show it: active = survival mostly below about 52% (no sharp cut-off); inactive = mostly above about 56%. The list shows a part of the results.
Tested on: DeltatarO mutant
Assay: growth inhibition of S. aureus wild type versus tarO mutant, primary screen, teichoic acid synthesis inhibitors, RN4220, OD600 (AID 463173)
Conditions: OD600, 18 h, hits give low values, screened at 18.75 µg/mL (by protocol)

SMILES	survival
Cc1ccc(NC(=O)C(=O)NCC(c2cccnc2)N2CCN(C)CC2)cc1F (configuration not stated)	inactive: 89%
COC(=O)C(CCSC)NC(=O)c1c(C)oc2ncn(CC(C)C)c(=O)c12 (configuration not stated)	inactive: 73%
CCOC(=O)c1ccc(NC(=O)c2ccc3c(c2)NC(=O)c2ccccc2S3)cc1	inactive: 68%
Cc1nc2ccccc2c(=O)n1NC(=O)c1ccccc1	inactive: 83%
Cc1c(Cl)cccc1NC(=O)CSc1ncccc1C(=O)Oc1ccccc1Cl	inactive: 85%
Cc1ccc(N(CC(=O)Nc2cc(C)cc(C)c2)S(=O)(=O)c2cccc3nonc23)cc1	inactive: 53%
COc1ccccc1NC(=O)CN1C(=O)C2(SCC(=O)N2c2ccc(C)c(C)c2)c2ccccc21 (configuration not stated)	inactive: 95%
CC1=C(c2ccc(C)cc2)S(=O)(=O)N(Cc2ccc(C(=O)Nc3ccc(F)cc3C)cc2)C1=O	inactive: 102%
Cc1nc2ccc(NC(=S)NCCCO)cc2nc1C	inactive: 73%
NS(=O)(=O)c1ccc(NC(=O)c2ccc3c(c2)CCN3S(=O)(=O)c2ccccc2)cc1	active: 43%
O=CN1CCN(S(=O)(=O)c2ccc(S(=O)(=O)NC3CC3)cc2)CC1	inactive: 72%
O=C(CSc1ccc(-c2ccc(F)cc2)nn1)N1CCOCC1	inactive: 101%
CCn1ccc2cc(S(=O)(=O)N3CCC(C(=O)NCCc4ccc(C)cc4)CC3)ccc21	inactive: 81%
COc1ccc(NC(=O)CSCc2cnn(-c3ccccc3)c2-n2cccc2)cc1	inactive: 100%
CC(C)CNC(=O)Cc1ccccc1	inactive: 65%
COc1ccc(Cc2nnc(SCC(=O)Nc3ccc(S(=O)(=O)N4CCCCCC4)cc3)o2)cc1	inactive: 60%
COc1cc(OC)cc(C(=O)NCC(c2cccs2)S(=O)(=O)c2ccc(F)c(C)c2)c1 (configuration not stated)	inactive: 100%
COc1cc(C(=O)N2CCN(CCc3ccccn3)CC2)cc(OC)c1OC	inactive: 66%
Cc1ccc(CNC(=O)Cn2cc(C(=O)c3ccc(F)cc3)c(=O)c3ccc(C)nc32)cc1	active: 52%

SMILES	survival
CCOC(=O)C1CCN(C(=O)C2CCN(C3=NS(=O)(=O)C(c4ccc(C)c(C)c4)=C3C)CC2)CC1	inactive: 77%
Cc1cccc(C2CC(=O)Oc3c2c(=O)n(C)c2ccccc32)c1 (configuration not stated)	inactive: 170%
CCc1ccc(Cc2cnc(NC(=O)c3ccc4c(c3)CC(c3ccccc3)OC4=O)s2)cc1 (configuration not stated)	inactive: 51%
CC(C)c1ccc(C2N=C(N)Nc3nc4ccccc4n32)cc1 (configuration not stated)	inactive: 101%
CC(CC(=O)Nc1ccc(Br)cc1F)S(=O)(=O)c1ccc2c(c1)NC(=O)CO2 (configuration not stated)	inactive: 88%
COc1ccc(C2NCCO2)cc1OC (configuration not stated)	inactive: 66%
CSc1ncc(Cl)c(C(=O)N(Cc2ccc(N(C)C)cc2)Cc2ccco2)n1	inactive: 80%
O=C(O)CCc1ccc(-c2ccc(F)cc2)n1CCC(=O)O	inactive: 103%
Cc1c(Cl)cccc1NC(=O)C(C)n1nnc2sc3c(c2c1=O)CCCC3 (configuration not stated)	inactive: 80%
Cc1c(C)n(C)c2ccc(C(=O)N3CCN(c4ccccc4)CC3)cc12	inactive: 74%
CCCCOc1ccc(CNC(=O)CCCN2C(=O)CSc3c2c(C)nn3-c2ccccc2)cc1	inactive: 72%
Cc1ccc2c(=O)cc(C(=O)Nc3ccc(S(=O)(=O)N4CCCCCC4)cc3)oc2c1C	inactive: 64%
Cc1cc(C)cc(NC(=O)Cn2c(=O)c3ccccc3n3nncc23)c1	inactive: 83%
O=C(Nc1nc2ccc(F)cc2s1)c1nc(S(=O)(=O)Cc2ccccc2)ncc1Cl	active: 17%
CCOC(=O)c1c(NC(C)=O)c2c3c(sc2n1Cc1nc(-c2ccccc2C)oc1C)CCCC3	inactive: 97%
COc1ccc(NC(=O)CSc2nc3c(oc4ccccc43)c(=O)n2-c2ccc(C)c(C)c2)cc1	inactive: 82%
O=C(c1ccc2c(c1)N(Cc1ccc(Cl)cc1)C(=O)c1ccccc1S2(=O)=O)N1CCCCC1	inactive: 121%
COc1ccc(CNCCC2(O)CC(C)N(C)CC2C)cc1OC (configuration not stated)	inactive: 94%
O=C(CN1C(=O)CCSc2ccccc21)Nc1ccccc1F	inactive: 85%

SMILES	survival
CCOc1ccc(CCNC(=O)C2COc3ccccc3C2)cc1OCC (configuration not stated)	active: 0%
Cc1ccc(-n2c(=O)c3oc4ccccc4c3n(Cc3ccccc3F)c2=O)cc1C	inactive: 104%
O=C(Cn1c(=O)n(-c2ccc(F)c(Cl)c2)c(=O)c2sc3ccccc3c21)NC1CCCC1	inactive: 93%
CCC(C)NC(=O)C(=O)Nc1c2c(nn1-c1ccccc1)CS(=O)(=O)C2 (configuration not stated)	inactive: 82%
CN(C)c1cc(Nc2ccc(Cl)cc2)c2c3c(onc13)-c1ccccc1C2=O	inactive: 91%
COc1ccc(CNC(=O)c2cc3c(s2)-c2ccccc2OC3)cc1	inactive: 64%
Cc1ccccc1OCc1nnc(SCc2cc(=O)c3ccccc3[nH]2)n1C	inactive: 97%
COc1ccc(N(CC(=O)NCCc2cccc(C)c2)S(=O)(=O)c2c(C)nn(C)c2C)cc1	inactive: 59%
COc1ccccc1N1CCN(C(CNC(=O)C(=O)NCCCN(C)C)c2cccnc2)CC1 (configuration not stated)	active: 61%
CCOC(=O)C1=C(CS(=O)(=O)c2c(C)cc(C)cc2C)NC(=O)NC1c1cccc(OC)c1 (configuration not stated)	inactive: 58%
Cc1ccn(C(=O)c2ccc(NC(=O)C3CCCCC3)cc2)n1	inactive: 96%
O=C1CC(c2ccccc2C(F)(F)F)c2c(c3ccccc3[nH]c2=O)O1 (configuration not stated)	inactive: 82%
N#Cc1c(NC(=O)c2cc3nc(-c4ccc(Br)cc4)cc(C(F)(F)F)n3n2)sc2c1CCCC2	active: 32%
C1CN(c2nc(N3CCOCC3)nc(N3CCOCC3)n2)CCN1	inactive: 95%
CC(C)N(Cc1ccccc1)C(=O)CCS(=O)(=O)c1cc2c(cc1Cl)NC(=O)CO2	inactive: 103%
Cc1cc(NC(=O)C(C)C)cc(-c2nc3ncccc3o2)c1O	inactive: 90%
Cc1ccc2nc(-c3ccc(O)cc3)c(Nc3ccc4c(c3)OCO4)n2c1	inactive: 73%
Cc1cc(C)n2nc(SCC(=O)Nc3ccccc3)nc2n1	inactive: 68%
C=CCSc1nnnn1-c1ccc(OC)cc1	inactive: 95%

Reference: PubChem BioAssay AID463173 (ICCB-Longwood Screening Facility, Harvard Medical School, 2010)
